# Measured values from a collection of fitness landscapes (doi:10.1126/science.1257360).
# This is one part of the list.
# B1: PhoQ; a variant is named by its letters at X, in order, P23837 (parent)
# chain: MKKLLRLFFPLSLRVRFLLATAAVVLVLSLAYGMVALIGYSVSFDKTTFRLLRGESNLFYTLAKWENNKLHVELPENIDKQSPTMTLIYDENGQLLWAQRDVPWLMKMIQPDWLKSNGFHEIEADVNDTSLLLSGDHSIQQQLQEVREDDDDAEMTHSVAVNVYPATSRMPKLTIVVVDTIPVELKSSYMVWSWFIYVLSANLLLVIPLLWVAAWWSLRPIEALAKEVRELEEHNRELLNPATTRELTSLVRNLNRLLKSERERYDKYRTTLTDLTHSLKTPLXXLQXXLRSLRSEKMSVSDAEPVMLEQISRISQQIGYYLHRASMRGGTLLSRELHPVAPLLDNLTSALNKVYQRKGVNISLDISPEISFVGEQNDFVEVMGNVLDNACKYCLEFVEISARQTDEHLYIVVEDDGPGIPLSKREVIFDRGQRVDTLRPGQGVGLAVAREITEQYEGKIVAGESMLGGARMEVIFGRQHSAPKDE
# Variants of: B1
# Experiment: enrichment ratio after two sorts for PhoP signalling (ratio (wild type AVST 3.29)); higher = more functional
# Settings: with PhoP (E. coli)
row,Variant,enrichment ratio
1,DYKV,≤ 0.25
2,DYPH,≤ 0.25
3,GQPE,≤ 0.25
4,TVMS,6.79
5,GQKY,≤ 0.25
6,YNRT,≤ 0.25
7,KPQS,≤ 0.25
8,WVTD,≤ 0.25
9,KTQH,≤ 0.25
10,GDFS,≤ 0.25
11,HYDN,≤ 0.25
12,LKDY,≤ 0.25
13,MVVW,≤ 0.25
14,TNAQ,4.37
15,KRAM,≤ 0.25
16,IADG,≤ 0.25
17,QGAP,≤ 0.25
18,TVIV,≤ 0.25
19,HAPS,≤ 0.25
20,MFIM,≤ 0.25
21,GWFL,≤ 0.25

row,Variant,enrichment ratio
1,IRIL,≤ 0.25
2,RTVQ,≤ 0.25
3,IVRP,≤ 0.25
4,DDCF,≤ 0.25
5,PVHP,≤ 0.25
6,IKGQ,≤ 0.25
7,HEMR,≤ 0.25
8,FTCH,≤ 0.25
9,TVSN,7
10,GHCY,≤ 0.25
11,NYKM,≤ 0.25
12,WWPG,≤ 0.25
13,REVI,≤ 0.25
14,RQTN,≤ 0.25
15,WFAK,≤ 0.25
16,WPPP,≤ 0.25
17,MQNY,≤ 0.25
18,NMCK,≤ 0.25
19,MQCA,≤ 0.25
20,VRDH,≤ 0.25
21,NTAG,≤ 0.25

row,Variant,enrichment ratio
1,LEED,≤ 0.25
2,LEDR,0.543
3,HPCC,≤ 0.25
4,QEIP,≤ 0.25
5,MHVA,≤ 0.25
6,HQVH,≤ 0.25
7,NADD,≤ 0.25
8,KEFY,≤ 0.25
9,LYKQ,≤ 0.25
10,TMSL,13.1
11,RNVQ,≤ 0.25
12,WCIL,≤ 0.25
13,IADQ,≤ 0.25
14,IFYP,≤ 0.25
15,SDLQ,4.07
16,TTSP,≤ 0.25
17,GAGP,≤ 0.25
18,ANSW,≤ 0.25
19,NMSC,≤ 0.25
20,SCFS,≤ 0.25
21,DWQK,≤ 0.25

row,Variant,enrichment ratio
1,VQRW,≤ 0.25
2,IRCV,≤ 0.25
3,YWQY,≤ 0.25
4,PCWE,≤ 0.25
5,LLNN,≤ 0.25
6,GDVA,≤ 0.25
7,PKNE,≤ 0.25
8,VQYN,≤ 0.25
9,INVT,≤ 0.25
10,KCRY,≤ 0.25
11,DGKQ,≤ 0.25
12,FRFF,≤ 0.25
13,MHTT,≤ 0.25
14,LHPL,≤ 0.25
15,EVVL,≤ 0.25
16,ISLR,≤ 0.25
17,MFIA,≤ 0.25
18,GKIQ,≤ 0.25
19,TIMP,≤ 0.25
20,MGSI,5.33
21,LVVY,≤ 0.25
